In US20110189178A1 (Xencor, published 2011):

What was measured:
[1] = biological target: T1, recombinant human FcγRIIb (R&D Systems) (human, UniProt P31994 46-217, limits assumed); experiment: Biacore SPR, Fc fusion captured on protein A, FcγRIIb injected
T1 construct: also called CD32b
T1 sequence (looked up): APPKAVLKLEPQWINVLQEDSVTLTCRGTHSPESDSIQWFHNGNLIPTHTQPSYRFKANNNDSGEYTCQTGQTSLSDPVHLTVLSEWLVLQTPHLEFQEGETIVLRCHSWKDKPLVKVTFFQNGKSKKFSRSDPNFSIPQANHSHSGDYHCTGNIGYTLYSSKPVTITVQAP

[2] = biological target: T2, human FcγRIIIa, V158 isoform (human, UniProt P08637 part only, limits assumed); experiment: Biacore SPR, Fc fusion captured on protein A, V158 FcγRIIIa injected
T2 construct: V158 allotype as printed; also called human V158 FcγRIIIa
T2 sequence (P08637 17-208 F176V limits assumed): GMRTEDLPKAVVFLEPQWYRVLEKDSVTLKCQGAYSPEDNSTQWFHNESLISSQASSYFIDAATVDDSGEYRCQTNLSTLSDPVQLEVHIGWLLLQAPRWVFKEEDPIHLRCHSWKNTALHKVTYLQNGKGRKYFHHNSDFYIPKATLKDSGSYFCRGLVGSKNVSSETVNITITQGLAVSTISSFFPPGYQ

binding result [1]: no binding
binding result [2]: no binding
B1: human MOG-Fc fusion, knockout (KO) variant 236R/328R (Fc fusion)
chain: GQFRVIGPRHPIRALVGDEVELPCRISPGKNATGMEVGWYRPPFSRVVHLYRNGKDQDGDQAPEYRGRTELLKDAIGEGKVTLRIRNVRFSDEGGFTCFFRDHSYQEEAAMELKVEDPFYWVSPG[human IgG1 Fc with C220S G236R L328R (EU numbers) not given here]
notes: Negative control; also called Fc(KO); Fc(KO) version
